Assay results taken from paper PMC12136788.
Some of the results follow.

B1: chr1:63100574:63100575:-_ENSG00000116641_ENST00000251157|hu_hu|FALSE|FALSE (ssRNA)
RNA: GGGAGUUCUACAGUCCGACGAUCAGCAGGUGGUACAUGUGGACGUAACAACCCUUUCAUCUGCUCAGAAUUAAGGUCAAAAUAAAAGUUUUCUGAAAUCUUUUUCUUUUCCUUGACAUCAUAUAAAGCCAAACUUGCAAAAAUCAACAGAGGAUUGAGCAUCA
B2: chr3:69361433:69361434:+_ENSMUSG00000027784_ENSMUST00000029355|mus_mus|motif|central (ssRNA)
RNA: GGGAGUUCUACAGUCCGACGAUCCACCCAUAGAUCUAUCUGGGCUACUUGUUACAGCUGCCCAUCUCUUCCCCCUCCCCGGAAAAAAAGCCACAGACAAACAAACUGACAAGGCAGAGGAUAACGUCUAGGGAAAUAUGGCCACAACAGAGGAUUGAGCAUCA
B3: chr15:51674161:51674162:-_ENSMUSG00000022312_ENSMUST00000022925|mus_hu|FALSE|FALSE (ssRNA)
RNA: GGGAGUUCUACAGUCCGACGAUCUUGAACAACUUCAGUUCCUUGUCCUUCUUCUUGAUAAUGUUUGAUUAUCUUUAAUACCACAAGGCCAUCUAUCUGCACUUGCUUCACGGCUGAAUCUCCCGAGCCGCCUUUGCCUUUGCCCAACAGAGGAUUGAGCAUCA
B4: chr11:77376804:77376805:-_ENSG00000048649_ENST00000308488|hu_hu|motif|central (ssRNA)
RNA: GGGAGUUCUACAGUCCGACGAUCAAUGAAUUUUAAUAGAAGUCUAAUGGCCAAAGGCCAAAACUACAUUCAAACUCUGCGGAUAUAUCCAGGCAGAUAGGAAAUUCCAACACACACACACACGCACACGCACACACACAAACACAACAGAGGAUUGAGCAUCA
B5: chr7:99593380:99593381:+_ENSMUSG00000052572_ENSMUST00000098308|mus_hu|FALSE|FALSE (ssRNA)
RNA: GGGAGUUCUACAGUCCGACGAUCGGUGAGGAGGCUCUCAUCUCAUCUCUUGGGCAGAAAGCCCGUCAGAGGUUCAUCCCUACACCUGGCACUUUGAGCAAACCAAAGCCUUCCUUCAUACUGCAAUGUCUUUUCUGUCCCACCCAACAGAGGAUUGAGCAUCA
B6: 17222295_17222415_1178_CDS_ENSMUSG00000017485_ENSMUST00000017629|mouse|control|control (ssRNA)
RNA: GGGAGUUCUACAGUCCGACGAUCGGCCACAAUGUCCUUGUCAAGUUUUUCCAUCUUAAAUUUGGAUAGAUCUGGCUGGAAUGUUAUGCAUGUAUAAUCUUCACCAUCAAAAUGUUUAAUUUUGGCUUCAGAAGUCUUCAUCAUCAACAGAGGAUUGAGCAUCA
B7: chr20:39729905:39729906:+_ENSG00000198900_ENST00000361337|hu_mus|FALSE|FALSE (ssRNA)
RNA: GGGAGUUCUACAGUCCGACGAUCAUAUUUGAUAGAACCUUGGAUAUUCUCUGUCCAGGAGACCAGCCAAGUAACCUUGUUAUCAUGUCGGACUUCCUUCCAUUUAUGUCCAGGAGGGGGAGAAGGAACCUUUGCGUCUUUGCUCAACAGAGGAUUGAGCAUCA
B8: 21267519_21269584_1405_CDS_ENSMUSG00000029014_ENSMUST00000030771|mouse|control|control (ssRNA)
RNA: GGGAGUUCUACAGUCCGACGAUCCAUCUGCUCAUUCACUUCUUCUAUCUGUUUUUCAAGUGCAGCUUUUCCUACUUCUCUCGUAGAUGAAGCCAGGAUUUCAUUCAAGCCCUGCAAGCUUGCUAGUUCAAGCCGAUCACAGAGCAACAGAGGAUUGAGCAUCA
B9: chr9:75491700:75491701:-_ENSMUSG00000032181_ENSMUST00000034699|mus_hu|FALSE|FALSE (ssRNA)
RNA: GGGAGUUCUACAGUCCGACGAUCAUAAAUGCGCUUGAUGGCCUCGGCUUCUUCCUUGUCAAGGAUGCCUUUCUCCACAUAAGCAUCAGCUUGUUUAUUGAUGAAGUCUCUCAUCUUUGAAAGGUCAUAAUCUUCUUUAUUUCCCAACAGAGGAUUGAGCAUCA
B10: chr3:150289932:150289933:+_ENSG00000144895_ENST00000460851|hu_mus|FALSE|FALSE (ssRNA)
RNA: GGGAGUUCUACAGUCCGACGAUCCUUGUAGUUUUUAACAUCCCAUACUUCCAUUUGUCCUCGAAGAUUUCCAAAUCCAGCCAGCACUAAUAUAUGUCCAUGAGGGCUAUAGAAGGCUGCGUUGCGAGGACCAGUCCCAAAGUCCAACAGAGGAUUGAGCAUCA
B11: chr1:60041781:60041782:+_ENSMUSG00000041040_ENSMUST00000036540|mus_hu|mus_mus_mus_hu_False|78_108 (ssRNA)
RNA: GGGAGUUCUACAGUCCGACGAUCAAGAGGAGUGAAUUAAAGUAAAUGCAGUAGUGGAAUGGCAAGUUUUAUUUUCCUUCACAAAAGAAAAUCUUUAUAACCCAGUCCUAGUCUUGGACAUAGUGAAAGCUAUAAAUUCUGACUCAACAGAGGAUUGAGCAUCA
B12: chr16:17043922:17043923:+_ENSMUSG00000063358_ENSMUST00000069107|mus_hu|motif|central (ssRNA)
RNA: GGGAGUUCUACAGUCCGACGAUCAGGGCUGCCAGGAGGAAUUCUCUGGACUGAAGAAAUUCUUUGAAAGCAUAAAAGCCACAACGGCCAGAAACCGCCCCUCCAAACGGCUCAAAGGAGUCAAAGUGGAUAAGCCAAGACGGGCAACAGAGGAUUGAGCAUCA
B13: chr14:78183846:78183847:+_ENSG00000119705_ENST00000557342|hu_hu|hu_hu_hu_mus_False|28_98 (ssRNA)
RNA: GGGAGUUCUACAGUCCGACGAUCUCUCAGAAAUCUUUCUUUCUUUUAUGUUUGAGCUCCGUGCAAAGCCUUUGCUCUUUGAGCUUGAACGUGGAUCUAUGGGAGGGCUAUAAUAUGCAGAAAAGGUAAUUUUUUUUUUAAAGACAACAGAGGAUUGAGCAUCA
B14: 96261735_96264329_2187_CDS_ENSG00000134874_ENST00000376829|human|control|control (ssRNA)
RNA: GGGAGUUCUACAGUCCGACGAUCAGAUUCAAAAGCCUGCCAGGCUAAAGGAUUUCCUUUGGGUUCACUGAUACUGUUUAAUGGAUUACAGGUAAAGUCUUUAAUCUGCUGUCUCUGAGUUAUAAUCAGCUCAUUCUGCUCCUGCAACAGAGGAUUGAGCAUCA
B15: 30737854_30738288_992_CDS_ENSG00000099995_ENST00000215793|human|control|control (ssRNA)
RNA: GGGAGUUCUACAGUCCGACGAUCGGUGGGGGGAGGGAAGUUCCCUUGCUCAUUGGGUUGGAAGUCCACUGUUUCCACCACCACAAAAUCAUGCCAGUCGAUCUGAGCAUAGGCCACCCGCUCCUUCUCCUUCUCCUCUUCUUCCAACAGAGGAUUGAGCAUCA
B16: 57578468_57578588_1780_3pUTR_ENSG00000140262_ENST00000343827|human|control|control (ssRNA)
RNA: GGGAGUUCUACAGUCCGACGAUCAUUUGUUGCAAACAUCUCAUGGGCUGAUGUUCUAUCUGAUGAGCUUCCUAUCUUCACUUCUGAUGGAAGUGUUGACCAGUUGCUUUGAUCGUAGGAUUACAUUUGAGUUUCUUGGUUCAACAACAGAGGAUUGAGCAUCA
B17: chr19:36946997:36946998:+_ENSMUSG00000024811_ENSMUST00000025729|mus_hu|FALSE|FALSE (ssRNA)
RNA: GGGAGUUCUACAGUCCGACGAUCAUAUUUUCCUUUUGCUGCUGCUUCAUGUAAAGGUGUAAAUUUCCAUAAAUCAGCUACAUUAACUACUGCUCCAUGUUUAACAAGAAGUUCUGCAACUUCAUAAUGUCCAUAAGAACAUGCCAACAGAGGAUUGAGCAUCA
B18: chr7:6441565:6441566:+_ENSG00000136238_ENST00000348035|hu_hu|FALSE|FALSE (ssRNA)
RNA: GGGAGUUCUACAGUCCGACGAUCGGUGAUGGGAGUCAGCUUCUUCUCCUUCAGUUUCUCGAUCGUGUCUUUAUCAUCCCUAAGAUCAAGUUUAGUUCCCACUAGGAUGAUGGGAGUGUUGGGACAGUGGUGCCGCACCUCAGGCAACAGAGGAUUGAGCAUCA
B19: chr13:41369065:41369066:+_ENSMUSG00000091264_ENSMUST00000165561|mus_hu|FALSE|FALSE (ssRNA)
RNA: GGGAGUUCUACAGUCCGACGAUCAAGAGUACUGGUUAUGCAGCACUUCUUGAAAGAGUGCUCCAACACUGUCUUCUGUUUAAUGGCAGUGGGGAGCUUGGGACAAAACGAUGUUUGAUGCCUUAAUGAUAGUCCUGCUCGACGCAACAGAGGAUUGAGCAUCA
B20: chr2:48035047:48035048:-_ENSG00000138081_ENST00000403359|hu_mus|FALSE|FALSE (ssRNA)
RNA: GGGAGUUCUACAGUCCGACGAUCCAAAAUUGCAGCUUAUUUCUUCACUUCUGUCCCUUCAAAAGUCUUUACGCAGUAAUGCUAAAAUCCCGAGCUCUGACAUCCUGAGUCAAUCUAUUGCCACUUCCUUUUUGGUAGCUUGAGCAACAGAGGAUUGAGCAUCA
B21: chr7:36537692:36537693:-_ENSMUSG00000043671_ENSMUST00000051377|mus_mus|motif|central (ssRNA)
RNA: GGGAGUUCUACAGUCCGACGAUCCAAUUUCUUUUCCAACUUCACAUCUUCUUUUGGUGAUGGAAAAUCCUCAGAAACUUCGGUGGGUUUUGUCUCUUUUCUUUGCCGGAUGUACAUCAUGAUGUCAAAGACUCAUACGCAUUGCAACAGAGGAUUGAGCAUCA
B22: chr11:2966284:2966285:-_ENSG00000205531_ENST00000380542|hu_mus|motif|central (ssRNA)
RNA: GGGAGUUCUACAGUCCGACGAUCGAGGGUGAACCCGAUGGCUCUGGCCUCAGAGGUGUGUGCCACAACCCACCCACCCCGGAAACCAAAACGCAAGAAAAAAAAUGCUCUAAGGCGAGCACAGCUUCCUCUACAGUGCUUGGGCAACAGAGGAUUGAGCAUCA

molecular target: T1, UNK ZnF1-3 (human, UniProt Q9C0B0 31-174); experiment: nsRBNS (natural sequence RNA bind-n-seq); RBNS binding buffer (assumed for nsRBNS): 25 mM Tris pH 7.5, 150 mM KCl, 3 mM MgCl2, 0.01% Triton X-100, 500 ug/ml BSA, 20 U/ml SUPERase-In, 4 C; UNK is unkempt and MSI1 is Musashi-1; names of the RNAs are library labels; protein concentration not given here; high values mean tight binding
T1 sequence: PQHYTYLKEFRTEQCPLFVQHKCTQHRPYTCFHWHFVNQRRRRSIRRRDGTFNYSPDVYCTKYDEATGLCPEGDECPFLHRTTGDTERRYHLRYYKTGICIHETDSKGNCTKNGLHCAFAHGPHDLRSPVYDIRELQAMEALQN

Binder	binding signal
B1	0.903 enrichment R
B2	1.86 enrichment R
B3	0.391 enrichment R
B4	1.78 enrichment R
B5	1.29 enrichment R
B6	0.579 enrichment R
B7	0.585 enrichment R
B8	0.675 enrichment R
B9	0.384 enrichment R
B10	1.16 enrichment R
B11	0.908 enrichment R
B12	1.62 enrichment R
B13	1.46 enrichment R
B14	0.916 enrichment R
B15	1.05 enrichment R
B16	0.274 enrichment R
B17	0.737 enrichment R
B18	0.964 enrichment R
B19	0.449 enrichment R
B20	0.552 enrichment R
B21	0.504 enrichment R
B22	1.03 enrichment R
